Assay [1] concerns the target T1, Atf7IP2(297-388), his-sumo- or Strep-tagged (UniProt Q5U623).
T1 sequence: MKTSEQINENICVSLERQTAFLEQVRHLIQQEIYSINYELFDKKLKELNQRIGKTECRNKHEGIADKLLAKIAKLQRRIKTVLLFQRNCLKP
Briefly: pull-down; three tagged proteins co-expressed in E. coli, complex purified sequentially by the his tag and then the strep tag; SDS-PAGE.

The target in assay [2] is T2, full-length Atf7IP2, Flag- or Myc-tagged (UniProt Q5U623).
T2 sequence: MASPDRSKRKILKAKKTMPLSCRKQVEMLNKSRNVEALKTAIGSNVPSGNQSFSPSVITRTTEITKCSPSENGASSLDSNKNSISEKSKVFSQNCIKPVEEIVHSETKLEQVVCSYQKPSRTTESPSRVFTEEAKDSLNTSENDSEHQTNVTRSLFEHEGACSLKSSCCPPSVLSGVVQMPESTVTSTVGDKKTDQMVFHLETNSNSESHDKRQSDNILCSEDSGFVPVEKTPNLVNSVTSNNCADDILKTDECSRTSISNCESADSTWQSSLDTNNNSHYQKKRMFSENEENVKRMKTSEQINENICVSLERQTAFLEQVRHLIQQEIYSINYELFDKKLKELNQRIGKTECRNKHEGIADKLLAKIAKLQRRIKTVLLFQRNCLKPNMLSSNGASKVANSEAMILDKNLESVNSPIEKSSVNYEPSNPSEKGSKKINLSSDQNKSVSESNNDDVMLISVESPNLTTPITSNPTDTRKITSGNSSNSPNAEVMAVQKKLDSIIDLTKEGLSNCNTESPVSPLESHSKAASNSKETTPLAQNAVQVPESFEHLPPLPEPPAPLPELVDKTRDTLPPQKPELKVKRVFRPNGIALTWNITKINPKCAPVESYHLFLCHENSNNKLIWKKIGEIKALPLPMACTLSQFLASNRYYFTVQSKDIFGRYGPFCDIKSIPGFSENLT
Briefly: co-IP; HEK293 cells transiently co-transfected; lysis in 30 mM HEPES pH 7.9, 400 mM NaCl, 10% glycerol, 0.05% Tween-20, 2 mM BME, Benzonase; anti-DYKDDDDK magnetic beads, FLAG peptide elution, blots with anti-FLAG, anti-HA, anti-Myc.

Results are given in words; binding and its absence hold for the method and conditions named. In cells and extracts the contact can be indirect. Some entries that bind do so weakly or less than the wild type. Sequences can lack the tags named with a protein.

B1: his-sumo-Atf7IP(574-666) (domain or fragment, human, UniProt Q6VMQ6 574-666, looked up)
chain: EEEYEAEFQVKITAKGDINQKLQKVIQWLLEEKLCALQCAVFDKTLAELKTRVEKIECNKRHKTVLTELQAKIARLTKRFEAAKEDLKKRHEH
notes: not shown: His6, N-terminal, kept; SUMO, N-terminal, kept
As for B1, the binding entry in assay [1] is given as “binds”.

B2: full-length Atf7IP2, Flag- or Myc-tagged (protein, UniProt Q5U623 1-682)
chain: T2 sequence
In the case of B2, the binding entry in assay [2] is listed as “binds”.

B3: Atf7IP2(297-388), his-sumo- or Strep-tagged (domain or fragment, UniProt Q5U623 297-388, looked up)
chain: T1 sequence
notes: Atf7IP2, coiled coil region, residues 297-388; Two differently tagged copies of one fragment, written as one molecule; in the mixed trimer with Atf7IP only the Strep-tagged copy was there; also called his-sumo-Atf7IP2(297-388); Strep-Atf7IP2(297-388); not shown: His6-SUMO (one copy) or Strep (the other copy), N-terminal, kept
As to B3, the binding entry in assay [1] is recorded as “binds”.

These data come from PMC12167477, “Setdb1 and Atf7IP form a hetero-trimeric complex that blocks Setdb1 nuclear export” (The Journal of Biological Chemistry, 2025).
